# In PubChem BioAssay AID886 (National Center for Advancing Translational Sciences (NCATS), 2007):
# Out of some 73,000 compounds screened, about 2,500 (3.4%) were called active. The inconclusive results got no clear call from the source; some entries with a clear call stand among them for comparison. Calls come from the whole dose curve; as a rule, active = well fitted inhibition curve with a large enough effect; inconclusive = small, poorly fitted or top-dose-only effect; inactive = no such curve, though single readings can be large or run the other way. Potencies beside an inconclusive call are fits to weak or partial responses and may not hold up. Some structures have more than one record in an assay (separate samples or runs), and their calls can disagree.
# Target: 3-hydroxyacyl-CoA dehydrogenase type-2 (Homo sapiens) (UniProt Q99714)
# Experiment: qHTS Assay for Inhibitors of HADH2 (Hydroxyacyl-Coenzyme A Dehydrogenase, Type II); note: nearly all actives have a fitted effect of over 60% in size
# Conditions: recombinant HADH2, NADH fluorescence, beta-hydroxybutyryl-CoA; series mostly up to 57.1 µM
# Outline: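 Buffer 100 mM Tris-HCl pH 9.0/0.01% Tween-20; HADH2 20 nM; NAD+ 1 mM; beta-hydroxybutyryl-CoA 90 uM (all final). 15 min cpd preincubation, RT.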
# Potency is the fitted concentration of half-maximal effect; tags give direction and shape of the fitted curve.
# UniProt Q99714, sequence (Q99714 whole entry, looked up): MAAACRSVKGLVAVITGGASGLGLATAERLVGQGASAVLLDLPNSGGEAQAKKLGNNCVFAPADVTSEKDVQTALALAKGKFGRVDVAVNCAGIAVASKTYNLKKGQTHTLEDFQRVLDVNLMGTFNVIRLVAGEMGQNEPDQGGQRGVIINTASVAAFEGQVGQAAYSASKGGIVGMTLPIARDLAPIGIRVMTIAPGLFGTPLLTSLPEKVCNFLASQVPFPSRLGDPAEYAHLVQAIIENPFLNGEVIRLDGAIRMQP
# UniProt Q99714, sequence (Q99714 whole entry, looked up): as above
row,SMILES,Potency
1,O=C(Nc1nc2ccc(S(=O)(=O)N3CCCC3)cc2s1)C1CCCO1 (stereo unspecified),"inconclusive: 39.8 µM [inhibitor, single point]"
2,Cc1cc(-c2ccccc2)n2ncc(C#N)c2n1,"inconclusive: 31.6 µM [inhibitor, single point]"
3,COc1cccc(C(=O)Nc2ccc(-c3nc4ccccc4o3)c(O)c2)c1,active: 3.98 µM
4,Cc1cccc(NC(=O)CSC(N)=O)c1C,"inconclusive: 2 µM [inhibitor, full curve]"
5,CCOc1ccc(-c2nnc3ccc(SCC(=O)NCc4ccco4)nn23)cc1,"inconclusive: 39.8 µM [inhibitor, single point]"
6,CC(C)(C)OC(=O)N1CCC(C(=O)N2CCCCCC2)CC1,inactive
7,COc1ccc(C)cc1-n1nnnc1SCc1cc(=O)n2cc(C)ccc2n1,inactive
8,O=C(Nc1ncnc2sc3c(c12)CCCCC3)c1ccco1,inactive
9,Cc1cccn2c(=O)c3cc(C(=O)N4CCc5ccccc5C4)n(C)c3nc12,"inconclusive: 25.1 µM [inhibitor, single point]"
10,CCCc1cc(=O)n2c(nc3ccccc32)[nH]1,"inconclusive: 6.31 µM [inhibitor, single point]"
11,FC(F)(F)c1cc(-c2ccco2)nc(-n2nnc3ccccc32)n1,active: 31.6 µM
12,CC(=O)NC(Cc1ccc(F)cc1)C(=O)N1CCN(C(=O)NCc2ccccc2)CC1 (stereo unspecified),inactive
13,CCC(C)OC(=O)C1=C(C)NC(=O)NC1c1ccc(F)cc1 (stereo unspecified),inactive
14,Cc1nn(-c2ccc(F)cc2)c2sc(C(=O)N3CCCCCC3)cc12,inactive
15,CC(=O)C(C)Oc1cc(C)cc2oc(=O)c(C)c(C)c12 (stereo unspecified),active: 31.6 µM
16,CCOC(=O)c1cnn2c(C(F)(F)F)cc(-c3cn(C)nc3C)nc12,active: 31.6 µM
17,CC1Cc2ccccc2N1c1ncnc2c1nnn2Cc1ccccc1 (stereo unspecified),active: 25.1 µM
18,O=C1CCN2C=Nc3cccc4ccc1c2c34,inactive
19,COc1ccccc1-c1cc(C(=O)Nc2ccc(F)cc2F)no1,"inconclusive: 39.8 µM [inhibitor, single point]"
20,CCCn1c(=O)[nH]c(=O)c2c1nc(-c1ccccc1OC(F)F)n2CCOC,"inconclusive: 39.8 µM [inhibitor, single point]"
21,CCn1c2ccccc2c2cc(/C=N/n3cnnc3)ccc21,active: 25.1 µM
22,COc1ccc(-n2c(N)c(-c3nc4ccccc4n3C)sc2=S)cc1,"inconclusive: 31.6 µM [inhibitor, single point]"
23,CN(C)C(=O)c1ccc(-c2ccc3ncnc(N4CCOCC4)c3c2)cc1,"inconclusive: 31.6 µM [inhibitor, single point]"
24,CN1CCc2c(cc(O)c(O)c2Cl)[C@H](c2cccc(Cl)c2)C1,active: 1 µM
25,CC[C@@H](C)[C@H](NC(=O)OC(C)(C)C)c1nnc(S(=O)(=O)Cc2cc(C)ccc2C)o1,active: 2.51 µM
26,C(=N\c1nccs1)/c1c[nH]c2ccccc12,"inconclusive: 3.98 µM [inhibitor, single point]"

row,SMILES,Potency
1,COC(=O)c1cccc(NC(=O)C(C)N2C(=O)c3ccccc3C2=O)c1 (stereo unspecified),"inconclusive: 39.8 µM [inhibitor, single point]"
2,COc1cc(C(=S)N2CCCC2)cc(Cl)c1O,"inconclusive: 20 µM [inhibitor, partial curve]"
3,CC(=O)Nc1ccc(S(=O)(=O)Nc2nnc(C3CCCCC3)s2)cc1,"inconclusive: 31.6 µM [inhibitor, single point]"
4,CCN1C(=S)SC(=O)C1=C1C=C(C)N(CCOC)C(C)=C1,"inconclusive: 0.01 µM [inhibitor, full curve, poor fit]"
5,O=c1cc(N2CCOCC2)[nH]c(=O)n1-c1ccc(Br)cc1,"inconclusive: 15.8 µM [inhibitor, partial curve]"
6,COc1ccc2[nH]cc(CCNc3ncncc3-c3ccccc3Cl)c2c1,"inconclusive: 25.1 µM [inhibitor, single point]"
7,O=C(CSc1ccc2nnc(-c3ccncc3)n2n1)Nc1ccc2c(c1)OCCO2,"inconclusive: 6.31 µM [inhibitor, single point]"
8,CCOc1ccc(NC(=O)CSc2nnc(-c3ccncc3)n2CC2CCCO2)cc1 (stereo unspecified),inactive
9,CC(=O)Oc1ccc(N2C(=O)C3C(C2=O)C2(C)C=CC3(C)O2)cc1 (stereo unspecified),active: 0.199 µM
10,CCN(CC)CC(=O)Nc1ccc(-c2nc3cc(NC(=O)CN(CC)CC)ccc3o2)cc1,"inconclusive: 39.8 µM [inhibitor, single point]"
11,COCCn1cc(C(=O)N2CCN(C)CC2)c2c3ccccc3n(C)c2c1=O,inactive
12,CCCOC(=O)C1=C(C)NC2=C(C(=O)CCC2)C1c1cc(OC)ccc1OC (stereo unspecified),inactive
13,CCOc1ccccc1OCC(=O)Nc1ccc(S(=O)(=O)Nc2nc(C)cc(C)n2)cc1,"inconclusive: 25.1 µM [inhibitor, single point]"
14,C[C@]12CCC3c4ccc(O)cc4CCC3[C@@H]1CCC2=O (stereo partly specified),inconclusive: 0.0013 µM [inhibitor]
15,CC(C)c1nc(N2CCCC2)c(C#N)c2c1CCCC2,"inconclusive: 31.6 µM [inhibitor, single point]"
16,Cc1ccc(C2CC(c3ccco3)n3ncnc3N2)cc1 (stereo unspecified),inactive
17,Cc1cc(CNC(=O)C(C)Cc2ccccc2)nn1C (stereo unspecified),inactive
18,CCN1CCc2c(sc(N)c2C#N)C1,"inconclusive: 31.6 µM [inhibitor, single point]"
19,CNC(=O)c1cc2cc(OC)ccc2n1CCN(C)C,"inconclusive: 39.8 µM [inhibitor, single point]"
20,O=C1CC(c2ccco2)Cc2nc(Nc3nc(-c4ccccc4)c4ccccc4n3)ncc21 (stereo unspecified),"inconclusive: 31.6 µM [inhibitor, single point]"
21,Cn1ncc2c1ncn1nc(CCc3ccccc3)nc21,inactive
22,COC(=O)Cc1c(C)c2ccc(OCC(=O)NCc3ccc4c(c3)OCO4)cc2oc1=O,"inconclusive: 39.8 µM [inhibitor, single point]"
23,CCOc1ccc(C2C=C(c3ccc(C)cc3)Nc3ncnn32)cc1 (stereo unspecified),"inconclusive: 3.98 µM [inhibitor, single point]"
24,O=C(c1ccccc1)c1ccc(N2CCCC2)cc1,inactive
25,CCCCN(C)C(=O)CCC(=O)Nc1ccc2nc(N3CCOCC3)cc(C)c2c1,active: 7.94 µM
26,C#CCCCC(=S)Nc1ccccc1,"inconclusive: 20 µM [inhibitor, single point]"

row,SMILES,Potency
1,O=c1cc(-c2ccc(O)cc2)oc2cc(O)cc(O)c12,active: 0.398 µM
2,O=C(Nc1ccc2c(c1)OCCO2)NC12CC3CC(CC(C3)C1)C2,inactive
3,COC(=O)N1CCC2(CC1)CCN(c1cccc(-c3ccccc3)c1)CC2,inactive
4,COc1ccc(OCC(=O)Nc2ccc3c(c2)nc(CCN2CCOCC2)n3C)cc1,inactive
5,Cc1cc(OCc2nn[nH]n2)c2c(C)c(CC(=O)O)c(=O)oc2c1,"inconclusive: 3.98 µM [inhibitor, single point]"
6,Nc1ncnc2nc[nH]c12.Nc1ncnc2nc[nH]c12.[Cl][Pt]([Cl])([Cl])[Cl],active: 3.98 µM
7,O=C(CCc1nc(-c2cccs2)no1)Nc1cnc2ccccc2c1,inactive
8,Cc1ccc(NC(=O)CC2SC3=NCCCN3C2=O)c(C)c1 (stereo unspecified),"inconclusive: 0.0794 µM [inhibitor, full curve, poor fit]"
9,COc1ccc(CCNC(=O)C2CCN(S(=O)(=O)c3cccc4nonc34)CC2)cc1OC,inactive
10,CCC(C(=O)Nc1nnc(-c2ccco2)s1)c1ccccc1 (stereo unspecified),"inconclusive: 39.8 µM [inhibitor, single point]"
11,Clc1ccccc1C1=Nn2c(nnc2-c2ccncc2)SC1,"inconclusive: 2.51 µM [inhibitor, partial curve]"
12,CC(=O)Oc1ccc(N2C(=O)C3C4C=CC(O4)C3C2=O)cc1 (stereo unspecified),"inconclusive: 0.501 µM [inhibitor, full curve]"
13,O=C(c1cc2nc(-c3ccccc3)cc(-c3ccccc3)n2n1)N1CCN(C(=O)c2ccco2)CC1,"inconclusive: 39.8 µM [inhibitor, single point]"
14,CC1(C)CC(=O)C(C=NCCc2ccccn2)=C(O)C1,inactive
15,COc1ccc(OC)c(CNC(=O)CCN2C(=O)COc3ccccc32)c1,"inconclusive: 31.6 µM [inhibitor, single point]"
16,Cc1c(Cl)cccc1NC(=O)CN1CCN(CCO)CC1,"inconclusive: 3.98 µM [inhibitor, single point]"
17,CCN(CC)CCCC(C)n1c(-c2ccccc2)nc2c(NCCO)nc(C)nc21 (stereo unspecified),"inconclusive: 39.8 µM [inhibitor, single point]"
18,Cc1ccc(-n2ncc(C(=O)N3CCc4ccccc4C3)c2NC(=O)c2ccco2)cc1C,inactive
19,N#CCCn1c(=O)c(-c2ccc(F)cc2)nc2cnc(N3CCNCC3)nc21,inactive
20,CCCCn1c(SCC(=O)N2CCC(C)CC2)nc2cc(S(N)(=O)=O)ccc21,inactive
21,Clc1cccc(-c2nnc3sc(-c4ccc5c(c4)OCO5)nn23)c1,"inconclusive: 3.16 µM [inhibitor, partial curve, poor fit]"
22,O=C(c1ccccc1)[C@H](Nc1ccc2ccccc2c1)c1ccccc1,"inconclusive: 3.16 µM [inhibitor, partial curve]"
23,O=c1cc(CSc2nnnn2-c2ccccc2)[nH]c2[nH]n(-c3ccccc3)c(=O)c12,"inconclusive: 20 µM [inhibitor, partial curve]"
24,COc1cccc(N2CCN(Cc3nc(N)nc(Nc4ccccc4)n3)CC2)c1,"inconclusive: 31.6 µM [inhibitor, single point]"
